± gives the standard deviation of the averaged measurements. Some of the results follow.
test system: PfAP2-EXP AP2 domain (GST-tagged); assay: gcPBM binding intensity (ln(normalized median fluorescence intensity)); higher = stronger DNA binding
Procedure, shortened: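 GST-tagged P. falciparum DNA-binding domains produced in E. coli were incubated for 1 h on an Agilent 4 × 180k array of primer-extended double-stranded 36-bp intergenic genomic probes with negative controls. Binding intensity is the highest Masliner-normalised natural-log median intensity across replicate spots of either probe orientation, with bound protein detected by Alexa488 anti-GST antibody at 488 nm.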

Sequence	gcPBM binding intensity (ln)
CATATAATAAATAGATGTACAGACTATATATATATA [XGTACX_site6575]	9.96 ± 0.39
TATAATATTTATATAACACACATATAGATTTATTTA [CACACA_site6269]	8.18 ± 0.4
TATATTAAAGGGGTTTCACACACATGTATAATTAAT [CACACA_site7950]	8.72 ± 0.42
TATTATTTAATCAAATGTACATAGAAAATGTATGTA [XGTACX_site4433]	8.38 ± 0.33
ATGTAAAATTAATATTGTACTTTTCCATCATGATAC [XGTACX_site2669]	8.49 ± 0.4
ATAATATAACACAAATGTACAAAAAATAAATAAATA [XGTACX_site385]	8.76 ± 0.4
AACAAACACAGACACACACACACACCCAAATGATTA [CACACA_site2431]	8.59 ± 0.52
TATATATATACTTAATGTACATATATATATATATAT [XGTACX_site3102]	10.3 ± 0.2
CATACTCACCAACACACACACACACCCATATAGAAT [CACACA_site592]	8.7 ± 0.45
CACAGATAAATTAACACACACACACCCATATATATA [CACACA_site3960]	8.84 ± 0.18
CTTTTTGAAATATTAACACACATTTTGTTAATTAAT [CACACA_site4046]	8.33 ± 0.34
CTATTTGGGGGAAGAGTGCATGACATGAATATAAAA	9.39 ± 0.11
AAAAGGAAGATATATACACACATACAAATATATATA [CACACA_site5236]	8.78 ± 0.49
TTTTTTTTTTTTTTCACACACTAATAATATTATCAT [CACACA_site4417]	8.53 ± 0.46
ATAAATTTTTAAAAATATGAATTATGTAATTTGTGA [CACACA_negctrl_site1621]	8.34 ± 0.36
ATTAGTATTAGATGATGTACATTTATATTGAAATAT [XGTACX_site8537]	8.65 ± 0.38
TTGATGTATACAATGTAGATTATTTAATATTTCAAC [CACACA_negctrl_site73]	8.21 ± 0.38
CTATATTATAAATATACACACATATCTTAAGTATAA [CACACA_site3096]	8.27 ± 0.35
GAAAACGTTTGAAGTTGTACATATGTATAAAAAGAA [XGTACX_site2304]	9.16 ± 0.43
ATAAAAATACAGTTAACACACATGTGTATTTATATG [CACACA_site7727]	8.82 ± 0.48
ATGGTCTGTTAAAGATGTACTTTTTAAAAATAAACG [XGTACX_site2583]	8.48 ± 0.25
TGTTATTTAAATAATTCTTTTTAAAAGATGAATTAT [CACACA_negctrl_site1226]	8.21 ± 0.56

Sequence	gcPBM binding intensity (ln)
TCTTTCTGCTCTTATACACACAAATAAAGATTTTTT [CACACA_site2700]	8.93 ± 0.31
TATATATATATATATATATATATATATATATATATT [CACACA_negctrl_site1440]	10.1 ± 0.52
CATTGACCATTAATTTGTACACAAGGGGAAATGAGG [XGTACX_site1756]	8.74 ± 0.35
ATGAAATTTTCATATTGTACTATTAAAAATATATTT [XGTACX_site1989]	8.27 ± 0.27
TAAGGGATATGTATATGTACATACAAATATATATAA [XGTACX_site2892]	8.62 ± 0.38
TGTAGATTTTGTAACACACACATATAAATACAGATA [CACACA_site5343]	8.65 ± 0.49
AATTTCATTTTTAGAAGTACATTTATATTAAAAATC [XGTACX_site2888]	8.25 ± 0.28
AAATGTAATAAATATACACACACAAATATATATATA [CACACA_site8754]	9.65 ± 0.31
TTTGCTTCGATATATTCACACATTTTTTTTCTTATT [CACACA_site4499]	8.91 ± 0.42
CATATAATTATTTTCACACATATAACTACATCTATA [CACACA_site5915]	8.64 ± 0.53
TAGCCAAAAGGATATGCACACACACCCACATATATA [CACACA_site8684]	8.52 ± 0.39
TAAGATCCTTAAAACGCATGCAGTATTTTTATTTCT [TGCATGCA_site532]	9.375 ± 0.021
CTTTTACGTTTAGGATGTACATTTAAAAAAAAAGAA [XGTACX_site8032]	8.71 ± 0.4
ATATAAATAAAAAAAAGTACATAATATATAAAAATA [XGTACX_site3065]	8.72 ± 0.33
TTAAGATGCATAAATACATGCAAAGTAAATAATTCT [TGCATGCA_site517]	8.72 ± 0.32
AATAAATATTAAATGACAAAAAAAAAAAAAAAAGGG [XGTACX_negctrl_site15]	8.71 ± 0.2
TATAATCCATAAGAAGCACACACATATATATATATT [CACACA_site8394]	8.6 ± 0.46
ATTATAAGAATTAAAAGAAACAAAATTTTAATTATA [CACACA_negctrl_site610]	8.31 ± 0.46
TTAGCAGGACGTTTGGTGCACGTACTGTTTTTCTTT [GTGCAC_site9856]	8.55 ± 0.23
TATAATAAATGGACGGTGCGACATGACCATATGTGT [GTGCAC_site9476]	8.93 ± 0.35
TATTCCAAAAATGTGTGTACATAAATACAATATTAT [XGTACX_site2653]	8.53 ± 0.11
AAAAAGAAGAATAATACACACAAATTATTTTATATA [CACACA_site1919]	8.41 ± 0.37
